From US20210363269A1 (ALX ONCOLOGY, published 2021)

Key:
[1] = biological target: T1, C57BL/6 mouse SIRP-α D1 domain (mouse (C57BL/6 strain), UniProt P97797 32-148); assay: SPR
T1 sequence: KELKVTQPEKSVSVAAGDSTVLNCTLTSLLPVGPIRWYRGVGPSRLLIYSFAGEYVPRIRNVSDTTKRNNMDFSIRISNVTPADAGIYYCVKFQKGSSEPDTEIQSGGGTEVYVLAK
How it was run: (§1)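 Pre-filtered culture media supplied the scFv-Fc antibody clones, which were captured by anti-human IgG Fc amine-coupled (about 4000 RU) to a GLC chip on a ProteOn XPR36. SIRP analytes were flowed in PBS pH 7.4 with 0.01% Tween-20 at 25° C. Interspot and buffer-blank responses were subtracted from the data, which were then fitted to a 1:1 Langmuir model. Dissociation rate constants (koff) were derived from this fitting.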

[2] = biological target: T2, mouse 129 SIRP-α D1 domain (mouse (129 strain), UniProt P97797 32-150); assay: SPR
T2 construct: also called m129
T2 chain: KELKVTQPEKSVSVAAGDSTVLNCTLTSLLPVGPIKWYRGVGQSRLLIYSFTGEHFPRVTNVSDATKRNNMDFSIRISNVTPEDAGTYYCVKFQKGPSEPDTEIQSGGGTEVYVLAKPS
How it was run: as §1

human SIRPβ isoform 1 = biological target: T3, human SIRPβ isoform 1 (human, UniProt O00241 30-148); assay: SPR, Langmuir fit
T3 construct: also called SIRPb; sirpb1
How it was run: as §1

[3] = biological target: T4, cynomolgus SIRP-α D1 domain (cyno1) (cynomolgus monkey, UniProt Q5TFQ8 30-148 (human entry), limits assumed); assay: SPR, Langmuir fit
T4 chain: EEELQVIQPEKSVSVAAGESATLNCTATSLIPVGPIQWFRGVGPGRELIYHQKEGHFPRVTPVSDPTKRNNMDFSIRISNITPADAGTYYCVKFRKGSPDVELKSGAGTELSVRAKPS
How it was run: as §1

[4] = biological target: T5, high affinity SIRP-α D1 variant CV1-3; assay: SPR, Langmuir fit
T5 chain: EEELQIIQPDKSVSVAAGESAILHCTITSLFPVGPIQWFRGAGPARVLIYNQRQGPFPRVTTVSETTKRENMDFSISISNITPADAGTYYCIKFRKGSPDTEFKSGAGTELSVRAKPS
How it was run: as §1

[5] = biological target: T6, cynomolgus SIRP-α D1 domain (cyno2) (cynomolgus monkey, UniProt Q5TFQ8 30-148 (human entry), limits assumed); assay: SPR, Langmuir fit
T6 chain: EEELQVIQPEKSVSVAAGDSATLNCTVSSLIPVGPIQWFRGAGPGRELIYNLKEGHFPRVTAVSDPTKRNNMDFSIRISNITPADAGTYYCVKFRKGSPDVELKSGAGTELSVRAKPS
How it was run: as §1

[6] = biological target: T7, human SIRP-α v2 D1 domain (human); assay: SPR, Langmuir fit
T7 construct: also called human v2
How it was run: as §1

human SIRPγ isoform 1 [7] = biological target: T8, human SIRPγ isoform 1 (human, UniProt Q9P1W8 29-147); assay: SPR, Langmuir fit
T8 construct: also called SIRPg; sirpg
How it was run: as §1

[8] = biological target: T9, human SIRP-α v1 D1 domain (human, UniProt P78324 31-149); assay: SPR, Langmuir fit
T9 construct: also called human v1
How it was run: as §1

[9] = biological target: T10, mouse 129 SIRP-α D1 domain (mouse (129 strain), UniProt P97797 32-150); assay: SPR, captured scFv-Fc
T10 construct: also called m129
T10 chain: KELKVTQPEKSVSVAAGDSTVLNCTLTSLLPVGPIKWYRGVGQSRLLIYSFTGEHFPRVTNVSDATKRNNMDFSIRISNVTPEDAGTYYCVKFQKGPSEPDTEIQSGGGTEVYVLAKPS
How it was run: as §1

[10] = biological target: T11, C57BL/6 mouse SIRP-α D1 domain (mouse (C57BL/6 strain), UniProt P97797 32-148); assay: SPR, captured scFv-Fc
T11 sequence: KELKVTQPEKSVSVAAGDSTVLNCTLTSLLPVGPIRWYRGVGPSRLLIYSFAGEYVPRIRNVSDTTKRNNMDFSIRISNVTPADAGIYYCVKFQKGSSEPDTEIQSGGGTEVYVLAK
How it was run: as §1

[11] = biological target: T12, NOD mouse SIRP-α D1 domain (mouse (NOD strain)); assay: SPR, captured scFv-Fc
T12 chain: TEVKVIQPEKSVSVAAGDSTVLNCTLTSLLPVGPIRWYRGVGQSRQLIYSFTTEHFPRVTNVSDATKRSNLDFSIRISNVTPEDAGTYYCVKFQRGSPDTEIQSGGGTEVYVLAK
How it was run: as §1

[12] = biological target: T13, cynomolgus SIRP-α D1 domain (SEQ ID NO:11) (cynomolgus, UniProt Q5TFQ8 30-148 (human entry), limits assumed); assay: SPR, captured scFv-Fc, 100 nM analyte
T13 construct: also called cyno1
T13 chain: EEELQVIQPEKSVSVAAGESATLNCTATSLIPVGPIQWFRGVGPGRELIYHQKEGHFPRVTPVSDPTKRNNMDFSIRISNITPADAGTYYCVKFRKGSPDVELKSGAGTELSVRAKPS
Description: (§2) Binding of the antibody clones to various SIRP proteins was determined using surface plasmon resonance (SPR) detection on a ProteOn XPR36 instrument (Bio-Rad, Hercules, Calif.) using phosphate buffered saline (PBS, pH 7.4) supplemented with 0.01% Tween-20 (PBST) as running buffer. The pre-filtered media containing the secreted antibodies was used directly for the assay. First, anti-Human IgG Fc (BR-1008-39, GE Healthcare) was amine-coupled onto a GLC sensor chip to generate the capture surfaces for the antibodies. About 4000 RU per flow cell of immobilized anti-human IgG Fc is achieved. Each clone is screened using the same method as follows.
(§3) (1) ‥5-10 uL of pre-filtered media in 10 mM sodium acetate buffer (pH4.5) was injected for 2 mins at 30 ul/min;
(§4) The koff rates of binding of each clone to each SIRP analyte were determined using SPR (Table C). The SPR screening conditions have been described herein, and the Koff values were determined using Langmuir kinetic fittings. The CD47 blocking properties (block, non-block, kick-off) are described in the last column of the Table C. Each antibody is identified according to its corresponding SEQ ID NO. SIRP analyte sequences are as follows: CV1-3, SEQ ID NO:18; v1, SEQ ID NO:5; v2, SEQ ID NO:6; cyno1, SEQ ID NO:11; cyno2, SEQ ID NO:12; m129, SEQ ID NO:7; NOD, SEQ ID NO: 8; BL6, SEQ ID NO:9; sirpb1, SEQ ID NO:13; sirpg, SEQ ID NO:15.

[13] = biological target: T14, high affinity SIRP-α D1 variant CV1-3 (human); assay: SPR, captured scFv-Fc, 100 nM analyte
T14 chain: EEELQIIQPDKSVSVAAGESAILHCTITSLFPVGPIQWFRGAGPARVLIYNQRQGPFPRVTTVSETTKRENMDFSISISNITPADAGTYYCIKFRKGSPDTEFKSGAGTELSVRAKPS
Description: as §2, §3, §4

[14] = biological target: T15, cynomolgus SIRP-α D1 domain (SEQ ID NO:12) (cynomolgus, UniProt Q5TFQ8 30-148 (human entry), limits assumed); assay: SPR, captured scFv-Fc, 100 nM analyte
T15 construct: also called cyno2; Cyno2
T15 chain: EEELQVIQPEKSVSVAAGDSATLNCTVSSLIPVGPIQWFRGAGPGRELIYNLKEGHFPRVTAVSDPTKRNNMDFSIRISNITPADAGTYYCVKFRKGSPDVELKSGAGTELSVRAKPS
Description: as §2, §3, §4

[15] = biological target: T16, human SIRP-α v1 D1 domain (human, UniProt P78324 31-149); assay: SPR, captured scFv-Fc, 100 nM analyte
T16 construct: also called human v1; human α v1
Description: as §2, §3, §4

human SIRPγ isoform 1 [16] = biological target: T17, human SIRPγ isoform 1 (human, UniProt Q9P1W8 29-147); assay: SPR, captured scFv-Fc, 100 nM analyte
T17 construct: also called sirpg; sirp-g
Description: as §2, §3, §4

[17] = biological target: T18, human SIRP-α v2 D1 domain (human); assay: SPR, captured scFv-Fc, 100 nM analyte
T18 construct: also called human v2; human α v2
Description: as §2, §3, §4

human SIRPγ isoform 1, sequence (Q9P1W8 29-147 limits assumed): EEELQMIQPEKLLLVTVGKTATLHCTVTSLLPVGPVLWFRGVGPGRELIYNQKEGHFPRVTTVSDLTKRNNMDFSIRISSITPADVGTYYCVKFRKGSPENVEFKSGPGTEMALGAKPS
human SIRPβ isoform 1, sequence (O00241 30-148 limits assumed): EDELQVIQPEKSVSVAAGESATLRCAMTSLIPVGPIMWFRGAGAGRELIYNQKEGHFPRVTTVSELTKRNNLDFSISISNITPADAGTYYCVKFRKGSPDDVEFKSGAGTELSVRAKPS

Binder | binding result [1] | binding result [2] | koff (human SIRPβ isoform 1) [s⁻¹] | koff [3] [s⁻¹] | koff [4] [s⁻¹] | koff [5] [s⁻¹] | koff [6] [s⁻¹] | koff (human SIRPγ isoform 1 [7]) [s⁻¹] | koff [8] [s⁻¹] | binding result [9] | binding result [10] | binding result [11] | koff [12] [s⁻¹] | koff [13] [s⁻¹] | koff [14] [s⁻¹] | koff [15] [s⁻¹] | koff (human SIRPγ isoform 1 [16]) [s⁻¹] | koff [17] [s⁻¹]
S122 (scFv) scFv: EIVLTQSPATLSVSPGERATFSCRASQNVKNDLAWYQQRPGQAPRLLIYAARIRETGIPERFSGSGSGTEFTLTITSLQSEDFAVYYCQQYYDWPPFTFGGGTKVEIKGQSSRSSGGGGSSGGGGSDVQLVESGGGVVRPGESLRLSCAASGFRFSNFAMTWVRQAPGEGLEWVSTIGSGDTYYADSVKGRFTISRDNSKNTLYLQMNSLRAEDTAVYYCAKDSTVSWSGDFFDYWGLGTLVTVSSSL[letters of human IgG1 Fc with C220S (EU numbers) and a few adjoining residues left out] | no binding (tested: Koff > 5 × 10^3 (legend)) | no binding (tested: Koff > 5 × 10^3 (legend)) | 0.000352 | 0.000266 | 0.000663 | 0.000327 | 0.000226 | 0.000361 | 0.000498 | – | – | – | – | – | – | – | – | –
S115 scFv-Fc (scFv) scFv: ETVLTQSPATLSVSPGERATLSCRASQTVGSKLAWHQQKPGQAPRLLIYDATNRATGISDRFSGSGSGTDFTLTISSLQTEDSAVYYCQQYYYWPPYRFGGGTKVEIKGQSSRSSGGGGSSGGGGSDVQLVESGGGVVRPGESLRLSCAASGFSFSSYAMNWVRQAPGEGLEWVSRINSGGGGTDYAESVKGRFTISRDNSENTLYLQMNSLRAEDTAVYYCAKQYDWNSFFDYWGLGALVTVSSSL[letters of human IgG1 Fc with C220S (EU numbers) and a few adjoining residues left out] | – | – | – | – | – | – | – | – | – | no binding (tested: 100 nM) | no binding (tested: 100 nM) | no binding (tested: 100 nM) | 2.22e-05 | 0.000484 | 6.91e-05 | 7.86e-06 | 3.34e-05 | 1.95e-05
S116 scFv-Fc (scFv) scFv: ETVLTQSPATLSVSPGERATLSCRASQTVGSKLAWHQQKPGQAPRLLIYDATNRATGISDRFSGSRSGTDFTLTISSLQTEDSAVYYCQQYYYWPPYRFGGGTKVEIKGQSSRSSGGGGSSGGGGSDVQLVESGGGVVRPGESLRLSCAASGFSFSSYAMNWVRQAPGEGLEWVSRINSGGGGTDYAESVKGRFTISRDNSENTLYLQMNSLRAEDTAVYYCAKQYDWNSFFDYWGLGALVTVSSSL[letters of human IgG1 Fc with C220S (EU numbers) and a few adjoining residues left out] | – | – | – | – | – | – | – | – | – | no binding (tested: 100 nM) | no binding (tested: 100 nM) | no binding (tested: 100 nM) | 7.01e-05 | 0.00048 | 0.00012 | 2.84e-05 | 8.25e-05 | 5.07e-05
